Experimental data published in the supplement of paper PMC9446081.
Screen size: about 39,000 compounds; about 220 (0.56%) showed activity. The list shows a part of the results.

These molecules were tested on Escherichia coli K-12 BW25113 (assay: relative growth (OD600 normalised to plate interquartile mean) (fraction); higher = less growth inhibition, active = 0.2 or less). Conditions: 50 µM; LB; incubation time: overnight (16-24 h).
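Further: static incubation at 37 °C against the wild-type strain, values averaged over two biological replicates.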

| SMILES | relative growth |
| --- | --- |
| C[C@H]1CN([C@@H](C)CO)C(=O)c2cc(NC(=O)C3CCCCC3)ccc2O[C@H]1CN(C)C(=O)Nc1cccc2ccccc12 | inactive: 0.968 |
| Cc1ccc(S(=O)(=O)Nc2ccc3c(c2)CC(=O)N([C@@H](C)CO)C[C@@H](C)[C@H](CN(C)Cc2ccc(Oc4ccccc4)cc2)O3)cc1 | inactive: 0.988 |
| COc1ccc(NC(=O)N(C)C[C@H]2OCc3cnnn3CCCC(=O)N([C@H](C)CO)C[C@@H]2C)c(OC)c1 | inactive: 1.01 |
| CN1CCN(C(=O)C[C@H]2CC[C@@H]3[C@H](COC[C@@H](O)CN3CC3CCCC3)O2)CC1 | inactive: 1.01 |
| N#CCCn1c(CC(N)=O)nc2ccccc21 | inactive: 1.05 |
| C[C@H]1CN([C@@H](C)CO)C(=O)c2cc(NC(=O)Cn3cnnn3)ccc2O[C@@H]1CN(C)Cc1ccc2c(c1)OCO2 | inactive: 0.987 |
| C[C@H]1CN([C@@H](C)CO)C(=O)c2cc(NC(=O)CCC(F)(F)F)ccc2O[C@@H]1CN(C)C(=O)Nc1ccc(C(F)(F)F)cc1 | inactive: 0.958 |
| COc1ccc(S(=O)(=O)N(C)C[C@@H]2OCCCC[C@@H](C)Oc3ccc(NC(=O)NC4CCCCC4)cc3C(=O)N([C@@H](C)CO)C[C@@H]2C)cc1 | inactive: 1.03 |
| CN1CCN(C(=O)C[C@@H]2C=C[C@H](NC(=O)Nc3ccccc3F)[C@H](CO)O2)CC1 | inactive: 1.02 |
| C[N+](C)(C)CCCCCCNC(=O)[C@H]1C[C@H]2C(=O)N[C@@H](CCCC[N+](C)(C)C)C(=O)N2[C@H]1c1ccc(O)cc1 | inactive: 1.01 |
| CNC(=O)[C@H]1O[C@H](n2cnc3c(NCc4cccc(I)c4)nc(Cl)nc32)[C@@H](O)[C@@H]1O | inactive: 1.03 |
| Cn1cc(N2C[C@]3(COCCN(C(=O)C4(C#N)CC4)C3)OCC2=O)cn1 | inactive: 1.01 |
| C[C@H]1CN([C@@H](C)CO)S(=O)(=O)c2ccc(Br)cc2O[C@@H]1CN(C)C(=O)Cc1cccnc1 | inactive: 0.988 |
| COc1ccc(NC(=O)Nc2ccc3c(c2)CC(=O)N([C@H](C)CO)C[C@H](C)[C@@H](CN(C)S(C)(=O)=O)O3)cc1 | inactive: 0.998 |
| Cc1noc(C)c1NC(=O)Nc1cccc2c1O[C@@H](CN(C)S(=O)(=O)c1ccccc1)[C@@H](C)CN([C@H](C)CO)C2=O | inactive: 1.01 |
| Cc1c(/C=N/c2ccc(C(C)C)cc2)sc2ccccc12 | inactive: 0.95 |
| CO[C@@H]1CN(C)C(=O)c2cc(NC(=O)Nc3ccccc3F)ccc2OC[C@@H](C)N(Cc2ccccc2C(=O)O)C[C@H]1C | inactive: 1.01 |
| C[C@@H]1CN([C@H](C)CO)C(=O)c2c(c3ccccc3n2C)-c2ccccc2CO[C@H]1CN(C)Cc1cccc(C(F)(F)F)c1 | inactive: 1.07 |
| Cc1ccc(S(=O)(=O)Nc2ccc3c(c2)C(=O)N([C@H](C)CO)C[C@@H](C)[C@H](CN(C)C(=O)Nc2c(C)noc2C)OCCCC[C@@H](C)O3)cc1 | inactive: 0.982 |
| C[C@@H]1CN([C@@H](C)CO)C(=O)Cc2cc(NS(=O)(=O)c3cn(C)cn3)ccc2O[C@H]1CN(C)Cc1ccc2c(c1)OCO2 | inactive: 0.957 |

| SMILES | relative growth |
| --- | --- |
| Cc1noc(C)c1S(=O)(=O)N(C)C[C@@H]1Oc2ccc(NC(=O)Cc3ccccc3)cc2CC(=O)N([C@H](C)CO)C[C@H]1C | inactive: 0.993 |
| COCCNC(=O)Cn1cnc2c1c(=O)n(C)c(=O)n2C | inactive: 1.01 |
| CCN1CCN([C@H]2CC(=O)NC2=O)CC1 | inactive: 1.01 |
| CCCCCCCCCC[C@@H](O)[C@H]1C=C[C@@H]2C(=O)N(c3ccccc3)C(=O)[C@@H]2N1Nc1ccc([N+](=O)[O-])cc1 | inactive: 1.03 |
| O=C(C[C@@H]1C=C[C@H](NC(=O)c2cccnc2)[C@H](CO)O1)NCCN1CCCCC1 | inactive: 1.03 |
| COCC#Cc1ccc2c(c1)O[C@@H](CN(C)S(=O)(=O)c1ccc(OC)cc1)[C@@H](C)CN([C@H](C)CO)S2(=O)=O | inactive: 1.02 |
| CNCc1ccncc1 | inactive: 1.05 |
| Cc1ccc(S(=O)(=O)Nc2cccc3c2O[C@@H](CN(C)C(=O)NC(C)C)[C@@H](C)CN([C@@H](C)CO)C3=O)cc1 | inactive: 1.02 |
| O=C(CN1CCOCC1)N[C@@H]1CC[C@@H](CCn2cc(C3CC3)nn2)O[C@H]1CO | inactive: 0.986 |
| C[C@@H]1CN([C@H](C)CO)C(=O)c2cccc(NS(=O)(=O)c3ccc(Cl)cc3)c2O[C@H]1CN(C)C(=O)Nc1cccc2ccccc12 | inactive: 1.02 |
| CC(C)NC(=O)Nc1ccc2c(c1)C(=O)N([C@H](C)CO)C[C@H](C)[C@H](CN(C)Cc1ccc(-c3ccccc3)cc1)O2 | inactive: 0.977 |
| O=C(C[C@H]1CC[C@@H]2[C@H](COC[C@@H](O)CN2S(=O)(=O)c2ccccc2F)O1)NCc1ccccc1Cl | inactive: 1.02 |
| C[C@H]1CN([C@@H](C)CO)C(=O)c2cc(C#CC3(O)CCCC3)cnc2O[C@@H]1CN(C)C(=O)CN(C)C | inactive: 1.04 |
| Cc1noc(C)c1NC(=O)Nc1ccc2c(c1)C(=O)N([C@H](C)CO)C[C@@H](C)[C@H](CN(C)C(=O)Nc1cccc3ccccc13)O2 | inactive: 1.02 |
| CC(C)C(=O)O | inactive: 0.991 |
| C[C@H](CO)N1C[C@H](C)[C@@H](CN(C)S(=O)(=O)c2ccc(Cl)cc2)OCCCC[C@H](C)Oc2ccc(NC(=O)Nc3ccccc3)cc2C1=O | inactive: 1.05 |
| C[C@H](CO)N1C[C@H](C)[C@H](CN(C)S(=O)(=O)c2ccccc2)Oc2ccc(NS(=O)(=O)c3cccs3)cc2CC1=O | inactive: 0.996 |
| Cc1ccc(S(=O)(=O)Nc2cccc3c2O[C@@H](CN(C)S(=O)(=O)c2cn(C)cn2)[C@H](C)CN([C@@H](C)CO)C3=O)cc1 | inactive: 1 |
| NC(=O)NCC#Cc1ccc2c(c1)[C@]1(C(=O)N2)[C@H](C(=O)N2CCCCCCC2)[C@H]2C(=O)O[C@H](c3ccccc3)[C@H](c3ccccc3)N2[C@@H]1c1ccc(O)cc1 | inactive: 1.04 |
| COc1ccc([Si](C)(C)[C@@H]2[C@@H](CCn3cc([C@H](O)c4ccccc4)nn3)O[C@]3(C(=O)N(Cc4ccc(N5C(=O)c6cccc7cccc5c67)cc4)c4ccccc43)[C@H]2C)cc1 | inactive: 0.913 |

| SMILES | relative growth |
| --- | --- |
| NCC1OC(OC2C(CO)OC(OC3C(O)C(N)CC(N)C3OC3OC(CO)C(O)C(O)C3N)C2O)C(N)C(O)C1O.O=S(=O)(O)O (centres undefined) | inactive: 0.915 |
| C[C@@H]1CCCCO[C@@H](CN(C)C(=O)Nc2ccc(F)cc2)[C@H](C)CN([C@@H](C)CO)C(=O)c2cc(NS(=O)(=O)c3ccc(Cl)cc3)ccc2O1 | inactive: 1.01 |
| C[C@@H]1CCCCO[C@H](CN(C)S(=O)(=O)c2ccc(Cl)cc2)[C@H](C)CN([C@H](C)CO)C(=O)c2cc(NC(=O)Cc3ccccc3)ccc2O1 | inactive: 1.03 |
| C[C@H]1CN([C@@H](C)CO)C(=O)c2cccc(NC(=O)c3cnccn3)c2O[C@@H]1CN(C)S(=O)(=O)c1ccc(Cl)cc1 | inactive: 0.925 |
| C[C@@H]1CCCCO[C@@H](CN(C)Cc2ccc3c(c2)OCO3)[C@@H](C)CN([C@H](C)CO)C(=O)c2cc(NC(=O)c3ccccc3)ccc2O1 | inactive: 1.01 |
| O=C(C[C@H]1CC[C@H]2[C@@H](COC[C@@H](O)CN2S(=O)(=O)c2ccc(F)cc2)O1)N[C@@H]1CCN(Cc2ccccc2)C1 | inactive: 1.02 |
| C[C@H]1CCCCO[C@@H](CN(C)C(=O)Nc2ccc(C(F)(F)F)cc2)[C@@H](C)CN([C@@H](C)CO)C(=O)c2cc(NC(=O)Nc3ccc(C(F)(F)F)cc3)ccc2O1 | inactive: 1.01 |
| C[C@H]1CN([C@@H](C)CO)C(=O)c2cccc(NC(=O)C3CCOCC3)c2O[C@@H]1CN(C)Cc1ccc(C(=O)O)cc1 | inactive: 0.992 |
| C[C@@H]1CN([C@@H](C)CO)C(=O)c2cc(C#Cc3ccncc3)cnc2O[C@@H]1CN(C)C(=O)c1ccccc1F | inactive: 0.996 |
| CC(=O)O[C@@H]1[C@@H](OC(C)=O)[C@@H]2OC[C@@H](O2)[C@H]1OC(C)=O | inactive: 0.987 |
| C[C@@H]1CCCCO[C@@H](CN(C)C(=O)Nc2ccc(F)cc2)[C@@H](C)CN([C@@H](C)CO)C(=O)c2cc(NC(=O)CCCN(C)C)ccc2O1 | inactive: 0.989 |
| C[C@@H]1CN([C@@H](C)CO)C(=O)c2cccc(NC(=O)C3CCCCC3)c2O[C@@H]1CN(C)Cc1ccc(C(F)(F)F)cc1 | inactive: 0.969 |
| CN1CCN(C(=O)C[C@@H]2CC[C@@H]3[C@H](COC[C@@H](O)CN3C(=O)Nc3cc(Cl)cc(Cl)c3)O2)CC1 | inactive: 0.948 |
| C[C@@H]1CN([C@H](C)CO)C(=O)c2cc(NC(=O)NC3CCCCC3)ccc2O[C@@H](C)CCCCO[C@H]1CN(C)C(=O)Nc1ccc2c(c1)OCO2 | inactive: 1 |
| COc1ccc(S(=O)(=O)N2C[C@@H](O)COC[C@@H]3O[C@@H](CC(=O)NCCN4CCCCC4)CC[C@H]32)cc1 | inactive: 0.942 |
| Cc1ccc(S(=O)(=O)Nc2ccc3c(c2)C(=O)N([C@H](C)CO)C[C@H](C)[C@@H](CN(C)CC2CCCCC2)OCCCC[C@H](C)O3)cc1 | inactive: 1.02 |
| CCC(=O)N(C)C[C@H]1Oc2ncc(C#C[C@@H](C)O)cc2C(=O)N([C@H](C)CO)C[C@@H]1C | inactive: 1.01 |
| Cn1cnc(S(=O)(=O)N2C[C@@H](O)COC[C@@H]3O[C@H](CC(=O)NCc4ccc(F)cc4)CC[C@H]32)c1 | inactive: 0.987 |
| C[C@@H]1CCCCO[C@@H](CN(C)Cc2ccc(C(=O)Nc3ccccc3N)cc2)[C@@H](C)CN([C@H](C)CO)C(=O)c2cc(NC(=O)Cc3ccccc3)ccc2O1 | inactive: 1.01 |
